# Test results published in PubChem BioAssay AID1259400 (National Center for Advancing Translational Sciences (NCATS), 2018).
# The campaign covered roughly 350,000 compounds. About 2,100 (0.6%) were called active. Inconclusive results, whose numbers are uncertain, are shown with a selection of clear calls.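 How the source made its calls: active means activity change of -60% or lower, but not beyond a set lower limit; inconclusive means change between -60% and -40%, or beyond the set limit; inactive means change above -40%.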
# Target: Relaxin receptor 1 (Homo sapiens) (UniProt Q9HBX9)
# Experiment: qHTS Assay for Antagonists of the Relaxin Receptor RXFP1
# Conditions: HEK293-RXFP1, relaxin-stimulated cAMP HTRF, 30 min; at 57.5 µM; stronger effect = lower value
# Source text: The relaxin hormone is involved in the variety of biological functions in normal tissues and diseases. The role of relaxin is well-established in female reproduction and parturition, mammary gland and endometrial development, maintenance of myometrial quiescence during pregnancy. Relaxin signaling through its G protein-coupled receptor (GPCR) RXFP1 results in ECM remodeling through regulation of collagen deposition, cell invasiveness, proliferation and overall tissue homeostasis. […] Recombinant human relaxin (rhRlx) is currently being tested in clinical trials as a protective agent in congestive heart failure, in treating severe preeclampsia, and as an anti-fibrotic agent in various organs. […] Upon relaxin binding RXFP1 activation leads to the activation of adenylate cyclase (AC) via G?s. cAMP will activate PKA, which phosphorylates many signaling proteins. Thus, detection of cAMP increase is an easy and reliable indication of relaxin receptor activation. To screen for antagonists of the relaxin receptor, a HEK293T cell line stably transfected with RXFP1 was used. RXFP1 activation by relaxin in presence of various concentrations of tested compounds was assayed by changes in cAMP levels as detected with a time-resolved fluorescence energy transfer (TR-FRET) cAMP detection kit.
# For the primary screening, we used HTRF(R) (Homogenous Time-Resolved Fluorescence) cAMP HiRange assay (Cisbio Bioassays, 62AM6PEJ). Presence of cAMP in the cell lysate disrupts binding between the Cryptate-labeled anti-cAMP and d2-labeled cAMP pair, leading to a decrease in TR-FRET signal. The libraries were screened at two doses (57microM and 11microM), followed by a confirmation of the hits at 7-point serial dilution in the range of final concentrations [57microM - 78nM]. Data were normalized to the controls for basal activity (buffer only) and 100% activity (5 nM porcine relaxin). The EC50 values were determined from concentration-response data modeled with the standard Hill equation. NCGC Assay Protocol Summary: HiHEK (Hawaiian HEK293 LGR7 stably transfected with human RXFP1) were grown in the following media: DMEM+10%FBS+Pen/Strep + Geneticin (1mg/ml). For the assay, the cells were seeded in DMEM+Pen/Strep (with no serum & selective antibiotics) at 2,100 cells/ 3microl/well with MultiDrop Combi dispenser (Thermo Scientific, Logan, UT) onto white tissue culture treated solid bottom1536-well plates (Greiner #789173-F) and allowed to attach/recover overnight at 37 degrees C, 5% CO2. Next, 23nl/well of compound solutions in DMSO were transferred into wells with a pintool (Kalypsis, San Diego, CA). […] EC80 (relaxin at 50pM final concentration) was dispensed to the rest of the plate except columns 1&2 which were used as a negative control (EC0, buffer only), 1microl/well also. The cells were stimulated by relaxin in the presence of compounds for 30 minutes at 37 degrees C, 5% CO2. The detection reagents were prepared individually by dilution in Lysis buffer (supplied with the assay kit) just prior to dispensing. 1microl/well of cAMP-d2 and 1microl/well anti-cAMP-Eu3+-Cryptate antibodies were added simultaneously with BioRAPTR FRDtrade mark Workstation (Beckman Coulter). The plates were incubated at ambient temperature for 30 minutes and, then, FRET signal was read on Envision plate reader (PerkinElmer, Waltham, MA), at wavelengths 340nm (excitation), 615nm & 665nm (emission of donor and acceptor channels respectively).
# On the % scale 0 is the no-effect control and ±100 the full control effect.
# UniProt Q9HBX9, sequence (Q9HBX9 whole entry, looked up): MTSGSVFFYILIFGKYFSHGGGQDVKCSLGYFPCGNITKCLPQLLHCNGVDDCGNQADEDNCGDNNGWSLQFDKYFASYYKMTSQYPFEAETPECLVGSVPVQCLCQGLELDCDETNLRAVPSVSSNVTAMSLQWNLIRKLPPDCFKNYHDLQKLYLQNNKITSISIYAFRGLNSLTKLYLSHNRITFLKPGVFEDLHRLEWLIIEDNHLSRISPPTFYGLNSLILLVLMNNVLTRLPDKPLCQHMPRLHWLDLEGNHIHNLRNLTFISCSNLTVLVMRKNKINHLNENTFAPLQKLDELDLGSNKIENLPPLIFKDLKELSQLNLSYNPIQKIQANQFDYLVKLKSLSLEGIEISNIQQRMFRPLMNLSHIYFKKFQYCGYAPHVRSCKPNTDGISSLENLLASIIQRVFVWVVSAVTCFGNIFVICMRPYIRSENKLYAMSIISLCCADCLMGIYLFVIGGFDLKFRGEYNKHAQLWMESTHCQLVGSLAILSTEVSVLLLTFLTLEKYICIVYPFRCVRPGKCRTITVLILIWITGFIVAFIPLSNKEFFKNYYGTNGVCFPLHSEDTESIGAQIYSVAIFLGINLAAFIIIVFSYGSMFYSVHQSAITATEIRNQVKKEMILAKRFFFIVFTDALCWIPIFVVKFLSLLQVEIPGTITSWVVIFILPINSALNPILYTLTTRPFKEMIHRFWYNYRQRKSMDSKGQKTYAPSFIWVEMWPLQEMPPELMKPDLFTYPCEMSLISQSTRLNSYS
row,Compound,"activity change, negative = inhibition"
1,COc1ccc(S(=O)(=O)N2CCCCCC2)cc1N,inconclusive: -40.7%
2,C=CS(=O)(=O)c1c2cc(OC)ccc2nc2ccc(OC)cc12,inconclusive: -43.2%
3,Cc1cc(S(=O)(=O)Nc2ccc3oc4c(c3c2)CCCC4)ccc1Cl,inconclusive: -52%
4,Cc1cn2nc(N)c3ccccc3c2n1,inactive: -7.36%
5,O=C(NNc1c2ccccc2nc2ccccc12)c1ccccc1O,inactive: -27.4%
6,CCCC(=O)NC(c1cccs1)c1cc(Cl)c2cccnc2c1O (configuration not stated),inconclusive: -44.8%
7,Cc1cccc(NC(=O)C2CC(=O)N(Cc3ccccc3)C2)n1 (configuration not stated),inconclusive: -44%
8,O=C1CCC(C(=O)OCC(=O)N2N=C3/C(=C/c4ccccc4)CCCC3C2c2ccccc2)N1 (configuration not stated),inconclusive: -48.8%
9,COc1ccc(C(=O)c2cn(Cc3ccccc3F)c3cc4c(cc3c2=O)OCCO4)cc1OC,inconclusive: -47.9%
10,COc1ccccc1/C=C/c1nc(C#N)c(NC2CCCCC2)o1,inconclusive: -55.3%
11,CCOC(=O)N1CCC(NC(=O)CCC(=O)N2CCOc3ccc(C)cc32)CC1,inconclusive: -44.6%
12,Fc1ccc2nc(N3CCCCC3)sc2c1,inconclusive: -40.8%
13,CCC(=O)OC1=C(C(C)=O)N(Cc2ccccc2)S(=O)(=O)c2ccccc21,inactive: -8.6%
14,CCOC(=O)c1c(C)n(-c2ccc(C)cc2)c2ccc(OCC(O)CNCC3CCCO3)cc12 (configuration not stated),inconclusive: -43.3%
15,CC(C)(C)CN1CCNC(=O)C1CC(=O)NCCc1cnn(-c2ccccc2)c1 (configuration not stated),inconclusive: -40.5%
16,Cc1cccc(OCCc2c(C)[nH]c(=S)[nH]c2=O)c1,active: -118%
17,CC(=O)Nc1ccc(Nc2cc(C)nc3c(-c4ccccc4)cnn23)cc1,inconclusive: -48.3%
18,CN(C)CCCC1Sc2ccccc2Sc2ccccc21 (configuration not stated),inconclusive: -43%
19,CN(C)CC/C=C1\c2ccccc2Sc2ccc(Cl)cc21,inconclusive: -43.5%

row,Compound,"activity change, negative = inhibition"
1,CCC(=O)OCOc1ccc(/C=C2/CCC(CN(C)C)C2=O)cc1 (configuration not stated),inconclusive: -45.7%
2,Cc1ccc2nc(SCC(=O)N/N=C/c3ccco3)cc(C)c2c1,inactive: -17.2%
3,Cc1cc(Cl)ccc1OCC(=O)N(Cc1ccco1)Cc1ccccc1F,active: -61.1%
4,CCOc1ncccc1C(=O)N1CCN(C(c2ccccc2)c2ccccc2)CC1,inconclusive: -44.8%
5,COc1ccc(C(C)NCCC(c2ccc(OC(C)C)cc2)c2ccccc2OC)cc1 (configuration not stated),active: -89.7%
6,CCC(=O)O[C@]1(C(=O)CCl)[C@@H](C)C[C@H]2[C@@H]3CCC4=CC(=O)C=C[C@]4(C)[C@@]3(F)[C@@H](O)C[C@@]21C,inconclusive: -56.3%
7,NC(=O)Cn1c(O)c(N=NC(=O)CNC(=O)/C=C/c2ccccc2)c2ccccc21,inactive: 3.78%
8,CCN(CC)CCN1c2ccccc2Sc2ccc3ccccc3c21,inconclusive: -57.2%
9,NC(=O)c1cc(S(=O)(=O)N2CCOCC2)ccc1Sc1ccccc1N,inactive: -29.7%
10,CCC(C(=O)OC)n1c(-c2ccccc2)nc2ccccc2c1=O (configuration not stated),inactive: 1.84%
11,CCOCCn1c(CN2CCN(C)CC2)nc2c1c(=O)n(C)c(=O)n2C,inconclusive: -52.4%
12,CS/C(Nc1cc(Cl)ccc1Cl)=C(/C#N)C(=O)c1ccco1,inconclusive: -41.6%
13,Cc1ccc(NC(=O)Cn2ncc3c([nH]c4ccccc43)c2=O)cc1Cl,inconclusive: -51.9%
14,COc1ccc2[nH]c3c(NCCC4=CCCCC4)ncnc3c2c1,active: -71.2%
15,C/C(=N\Nc1nc2ccccc2[nH]1)c1cc2ccccc2o1,inconclusive: -44.9%
16,Cc1c(C(=O)NCCSCc2ccco2)cccc1[N+](=O)[O-],inactive: -2.03%
17,C=C1C(=O)C23C(O)C1CCC2C12CCCC(C)(COC(C)=O)C1C(O)C3(O)OC2 (configuration not stated),active: -117%
18,CCCCC(=O)NC(=S)NNC(=O)c1ccc(OC)cc1,inconclusive: -42.8%
19,Cc1ccc(S(=O)(=O)CCC(=O)c2cccc([N+](=O)[O-])c2)cc1,inconclusive: -55.6%

row,Compound,"activity change, negative = inhibition"
1,CCOc1cc2c(cc1/C=C(/C#N)c1ccc(C(=O)O)cc1)OCO2,inactive: -5.13%
2,COc1ccc(CNC(=O)CSC(=S)N2CCCC2)cc1,inconclusive: -40.8%
3,Cc1cccc(NC(=O)COC(=O)c2ccc3nc(C)c(C)nc3c2)c1,inconclusive: -42.4%
4,O=C1NC(c2ccccc2)C(C(=O)c2cccs2)C(O)(C(F)(F)F)N1 (configuration not stated),inconclusive: -43.6%
5,NC(=S)N/N=C/c1ccc(-n2nncc2-c2ccc(Cl)cc2)cc1,active: -73.3%
6,CC(C)CNC(=O)c1cccc(NC(=O)c2ccc(Cl)c([N+](=O)[O-])c2)c1,inconclusive: -53.3%
7,Cc1ccc(S(=O)(=O)c2cn(C)c3cc(N4CCCC(C)C4)c(F)cc3c2=O)c(C)c1 (configuration not stated),inactive: -23.7%
8,O=[N+]([O-])c1cccc(SSc2cccc([N+](=O)[O-])c2)c1,inconclusive: -43.2%
9,Oc1c(C(Nc2cccc(C(F)(F)F)c2)c2ccncc2)ccc2cccnc12 (configuration not stated),active: -60.8%
10,CCCCCCCCCCCC[N+](C)(C)Cc1ccccc1,inconclusive: -47.4%
11,COc1ccc(/C=N/NC(=O)c2ccc3c(c2)OCCO3)c(OC)c1,inconclusive: -40.4%
12,Cc1ccc(C2=NN(CCC(=O)NCc3ccc4c(c3)OCO4)C(=O)CC2)cc1,inactive: -0.163%
13,O=C(OCC(O)C(O)C(O)C(SCc1ccccc1)SCc1ccccc1)c1ccccc1 (configuration not stated),inconclusive: -55.4%
14,CN1/C(=C/C(=O)c2nc(S(C)(=O)=O)ncc2Cl)C(C)(C)c2ccccc21,active: -68.8%
15,Oc1ccccc1CNc1ccc(Br)cn1,inconclusive: -42.8%
16,CCOC(=O)Nc1ccc2c(c1)N(C(=O)CN(CC)CC)c1ccccc1CC2,inactive: -7.4%
17,O=C(Nc1ccccc1)c1ccc(-c2ccccc2)s1,inconclusive: -46.2%
18,Cc1cc(=O)[nH]c(SCC(=O)c2c(N)n(C)c(=O)n(C)c2=O)n1,inactive: 13%
19,COc1cc(SC#N)ccc1N=Cc1c(C)[nH]n(-c2ccc(C)cc2C)c1=O,inconclusive: -53%
